Source: PubChem BioAssay AID1745853 (National Center for Advancing Translational Sciences (NCATS), 2022)
Where “and” joins values, the source holds several entries; their conditions need not be identical. Identical values can stand only once. This is one part of the list. Shown are side measurements of this screen, not its main read-out; they come without a call.

Columns and labels:
Assay in all cases: Primary Screen for Target Class Profiling of Small Molecule Inhibitors of Methyltransferases
[1] = target: Glycine N-methyltransferase (Homo sapiens) (UniProt Q14749); settings: purified enzyme, MTase-Glo SAH luminescence; measured here: GNMT inhibition; at 40 µM; stronger effect = lower value
Summary of the method: (§1)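 Each enzyme was reacted with SAM and its substrate, with compounds tested once at 40 uM; SAH formed was read by MTase-Glo luminescence.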

[2] = target: Guanidinoacetate N-methyltransferase (Homo sapiens) (UniProt Q14353); settings: purified enzyme, MTase-Glo SAH luminescence; measured here: GAMT inhibition; at 40 µM; stronger effect = lower value
Summary of the method: as §1

[3] = target: Histamine N-methyltransferase (Homo sapiens) (UniProt P50135); settings: purified enzyme, MTase-Glo SAH luminescence; measured here: HNMT inhibition; at 40 µM; stronger effect = lower value
Summary of the method: as §1

[4] = target: Nicotinamide N-methyltransferase (Homo sapiens) (UniProt P40261); settings: purified enzyme, MTase-Glo SAH luminescence; measured here: NNMT inhibition; at 40 µM; stronger effect = lower value
Summary of the method: as §1

[5] = target: Phenylethanolamine N-methyltransferase (Homo sapiens) (UniProt P11086); settings: purified enzyme, MTase-Glo SAH luminescence; measured here: PNMT inhibition; at 40 µM; stronger effect = lower value
Summary of the method: as §1
% is set by controls: 0 for no effect and ±100 for the full control effect.

Structure (SMILES)	activity change, negative = inhibition [1]	activity change, negative = inhibition [2]	activity change, negative = inhibition [3]	activity change, negative = inhibition [4]	activity change, negative = inhibition [5]
CNc1cc(C2CC(Nc3nc(N)nc(C)c3Cl)C2)nc(COC)n1 (stereo not drawn)	-6.14%	0.199%	-3.93%	-6.86%	-0.186%
CC(C)CCNC(=O)C1(C)Cn2c(ccc2-c2ccco2)C(=O)N1CCc1ccc(Cl)cc1 (stereo not drawn)	0.001%	0%	10.9%	7.44%	2.55%
C#CCNC(=O)C[C@@H]1c2nc(NC(=O)OCC=C)sc2C[C@@H]2[C@](C)(CO)[C@H](O)CC[C@]21C	-5.97%	-10.7%	-6.4%	-13.7%	-16.7%
O=C(c1ccc(C2CCCNC2)cc1)N1CCC(Oc2cccc(F)c2)CC1 (stereo not drawn)	-4.66%	3.06%	-11.9%	-3.04%	-0.661%
C[C@@H]1CC[C@]2(C)C3(C)CC[C@@]2(OC3=O)[C@@]12C[C@H](c1ccoc1)OC2=O	0%	-3.07%	2.17%	-16.3%	2.91%
CCOC(=O)C1c2c(OC)ccc3c2C(=CC(C)(C)CO3)CN1C(=O)C1CC1 (stereo not drawn)	-8.72%	-8.04%	-3.81%	-19.1%	-10.1%
O=C(C1CCCN1Cc1ccc(-c2cncnc2)cc1)N1CCOCC1 (stereo not drawn)	-3.51%	-15.7%	-1.79%	-14.1%	-13.2%
Cc1cc(C(=O)Nc2nc3cccc(Cl)c3n2C2CCCCN(C(=O)/C=C/CN(C)C)C2)ccn1 (stereo not drawn)		10.6%		-14.3%	-3.32%
O=C(/C=C/c1ccc(O)cc1)OCC1=C[C@@H](O)[C@@H]2C=CO[C@@H](O[C@@H]3O[C@H](CO)[C@@H](O)[C@H](O)[C@H]3O)[C@H]12	0%	3.75%	3.92%	-8.01%	-3.07%
CCCc1cc2c(-c3ccccc3)cc(=O)oc2cc1OCc1cc(C(=O)OC)oc1C	-9.4%	3.67%	-4.66%	-2.15%	-6.22%
COCC(=O)NC[C@H]1CCN(Cc2scnc2C)C[C@H]1N(C)C	-5.06%	-5.22%	-2.48%	-7.37%	-4.98%
CCOc1ccccc1NC(=O)Nc1cccc(-c2ccc(N3CCCC3)nn2)c1	-10.3%	-11.7%	-18.1%	-21.5%	-15.9%
N[C@H]1CO[C@H]2[C@@H]1OC[C@@H]2n1cc(-c2ccccn2)nn1	-37.7%	-26.8%	1.93%	-9.79%	-35.4%
COc1ccc(/C=C/C(=O)O[C@@H]2[C@@H](O)[C@H](C)O[C@@H](OC3C4C=COC(O[C@@H]5O[C@H](CO)[C@@H](O)[C@H](O)[C@H]5O)C4C4(CO)OC34)[C@@H]2O)cc1OC (stereo partly drawn)	1.99%	8.34%	6.44%	-4.9%	6.49%
CCc1cc2c(cc3n2CC(C)(C(=O)NC2CCCCC2)N(c2ccc(OC)c(OC)c2)C3=O)s1 (stereo not drawn)	1.7%	4.47%	-1.21%	-0.476%	-3.3%
CCOc1ccc(CN2C(=O)c3nc4ccccc4n3CC2(C)C(=O)NC2CCCCC2)cc1 (stereo not drawn)	-4.39%	3.01%	-1.13%	2.09%	-5.08%
O=C(CSc1nnc2n(Cc3ccc(F)cc3)c(=O)c3ccccc3n12)Nc1ccccc1F	0.764%	0%	4.35%	-1.71%	2.98%
CC(C)OC(=O)C(C)Oc1ccc2c(-c3ccccc3)cc(=O)oc2c1 (stereo not drawn)	-5.71%	3.28%	-3.95%	-7.45%	-7.78%
O=C(O)CCc1ccc(NCc2cccc(Oc3ccccc3)c2)cc1	-20.9% and -11.9%	-2.87% and -6.87%	-3.64% and 3.78%	-16.1% and -22.7%	-8.6% and -15%
C[C@@H]1CC2OC(=O)C3=C2C(CCC3O)[C@@]12C[C@@H](c1ccoc1)OC2=O (stereo partly drawn)	-0.74%	3.78%	5.6%	-9.84%	6.19%
CC(=O)Nc1c2n(c3ccccc13)CC(C)(C(=O)NC1CCCC1)N(Cc1ccccc1Cl)C2=O (stereo not drawn)	-6.01%	0.085%	-7.52%	-1.89%	0.638%
O=C1NCC2(CCN(CCc3ccccc3)CC2)O1	6.81%	14%	5.27%	-4.03%	4.42%
O=c1c2ccccc2n2c(-c3cc(Br)cs3)nnc2n1Cc1ccc(F)cc1	2.63%	0.185%	5.63%	3.77%	1.53%
COc1ccc(NC(=O)Cn2nc3n(CCCOC(C)C)c(=O)c4ccccc4n3c2=O)cc1	-2.04%	6.24%	2.51%	-5.38%	0.019%
COc1ccc(CN2C(=O)C(=O)c3cc(S(=O)(=O)N4CCC[C@H]4COc4cccnc4)ccc32)cc1	7.38%	9.77%	6.63%	-3.28%	3.41%
O=C(CCn1ccc2cc(S(=O)(=O)N3CCCCC3)ccc21)N1CCOCC1	1.39%	4.8%	-4.14%	2.61%	-0.181%
CCCN1C(=O)c2c(C(=O)Nc3ccccc3CC)ncn2CC1(C)C(=O)NC1CCCC1 (stereo not drawn)	1.4%	1.74%	5.71%	9.87%	9.22%
CCOc1ccc(CCNC(=O)CCCn2ccc3cc(S(=O)(=O)N4CCCC4)ccc32)cc1	2.58%	1.27%	4.51%	-0.682%	1.39%
CCC(C)NC(=O)c1ccc2c(=O)n(CCC(C)C)c3nn(CC(=O)c4ccccc4)c(=O)n3c2c1 (stereo not drawn)	-2.57%	-1.86%	1.62%	-6.8%	-4.45%
C=CCNC(=O)N[C@H]1CO[C@H]2[C@@H]1OC[C@@H]2Nc1nccc(-c2cccc(F)c2)n1	-21.4%	0.2%	-1.5%	-4.04%	1.13%
